From patent EP0243717A1 (priority 1986, dated 1987)

Tests used:
Aspergillus niger KF-105 = assay: microbe, parasite or virus in culture; conditions: Aspergillus niger, KF105; Medium E; read-out: MIC
Text: (§1) For reference, the minimum growth inhibition concentrations (MIC) to various bacteria of above five drugs and Lankacidin C are shown in Table 3.

Saccharomyces sake KF 26 = assay: microbe, parasite or virus in culture; conditions: Saccharomyces, KF26; Medium E; read-out: MIC
Text: as §1

[1] = tested on: S. aureus KB 199 (ML^r,TC^r); assay: microbe, parasite or virus in culture; conditions: Staphylococcus aureus
Text: as §1

[2] = tested on: Staphylococcus aureus KB 210 (ATCC 6538p); assay: microbe, parasite or virus in culture; conditions: Staphylococcus aureus, ATCC6538P; Medium A; read-out: MIC
Text: as §1

[3] = tested on: Treponema hyodysenteriae B 78; assay: microbe, parasite or virus in culture; conditions: Brachyspira hyodysenteriae, B78; Medium F; read-out: MIC
Text: as §1

[4] = tested on: Trichophyton interdigitale KF 62; assay: microbe, parasite or virus in culture; conditions: Trichophyton interdigitale, KF62; Medium E; read-out: MIC
Text: as §1

[5] = tested on: B. megaterium KB 144 (IFO 12108); assay: microbe, parasite or virus in culture; conditions: Priestia megaterium, IFO12108; Medium A; read-out: MIC
Text: as §1

[6] = tested on: Bacillus subtilis KB 211 (ATCC 6633); assay: microbe, parasite or virus in culture; conditions: Bacillus subtilis, ATCC6633; Medium A; read-out: MIC
Text: as §1

[7] = tested on: E. coli KB 198 (ML^r,LCM^s); assay: microbe, parasite or virus in culture; conditions: Escherichia coli
Text: as §1

M. pneumoniae KB-173 = assay: microbe, parasite or virus in culture; conditions: Mycoplasmoides pneumoniae, KB173; Medium D; read-out: MIC
Text: as §1

[8] = tested on: Mycobacterium smegmatis KB 42 (ATCC 607); assay: microbe, parasite or virus in culture; conditions: Mycolicibacterium smegmatis, ATCC607; Medium A; read-out: MIC
Text: as §1

Candida albicans KF-1 = assay: microbe, parasite or virus in culture; conditions: Candida albicans, KF1; Medium E; read-out: MIC
Text: as §1

[9] = tested on: pasteurella hemolytica KB 281; assay: microbe, parasite or virus in culture; conditions: Pasteurella, KB281; Medium C; read-out: MIC
Text: as §1

[10] = tested on: Micrococcus luteus KB 212 (ATCC 9341); assay: microbe, parasite or virus in culture; conditions: Micrococcus luteus, ATCC9341; Medium A; read-out: MIC
Text: as §1

[11] = tested on: Acholeplasma laidlawii KB 174 (PG-8); assay: microbe, parasite or virus in culture; conditions: Acholeplasma laidlawii; Medium D; read-out: MIC
Text: as §1

[12] = tested on: C. difficile KB 258 (ATCC 9689); assay: microbe, parasite or virus in culture; conditions: Clostridioides difficile, ATCC9689; Medium B; read-out: MIC
Text: as §1

[13] = tested on: Mycoplasma gallisepticum KB 170 (KP-13); assay: microbe, parasite or virus in culture; conditions: Mycoplasmoides gallisepticum; Medium D; read-out: MIC
Text: as §1

S. aureus KB 283 (MRSA) = assay: microbe, parasite or virus in culture; conditions: Staphylococcus aureus, MRSA
Text: as §1

[14] = tested on: B. cereus KB 143 (IFO 3001); assay: microbe, parasite or virus in culture; conditions: Bacillus cereus, IFO3001; Medium A; read-out: MIC
Text: as §1

[15] = tested on: Pseudomonas aeruginosa KB 115 (IFO 3080); assay: microbe, parasite or virus in culture; conditions: Pseudomonas aeruginosa, IFO3080; Medium A; read-out: MIC
Text: as §1

[16] = tested on: A. laidlawii KB 175 (Bm-1); assay: microbe, parasite or virus in culture; conditions: Acholeplasma laidlawii; Medium D; read-out: MIC
Text: as §1

[17] = tested on: M. gallisepticum KB 172 (333-P); assay: microbe, parasite or virus in culture; conditions: Mycoplasmoides gallisepticum; Medium D; read-out: MIC
Text: as §1

[18] = tested on: S. aureus KB 34 (FDA 209p); assay: microbe, parasite or virus in culture; conditions: Staphylococcus aureus, FDA209P; Medium A; read-out: MIC
Text: as §1

S. aureus KB 285 (MRSA) = assay: microbe, parasite or virus in culture; conditions: Staphylococcus aureus, MRSA
Text: as §1

[19] = tested on: M. gallisepticum KB 171 (S-6); assay: microbe, parasite or virus in culture; conditions: Mycoplasmoides gallisepticum; Medium D; read-out: MIC
Text: as §1

[20] = tested on: Fusobacterium varium KB 234 (ATCC 8501); assay: microbe, parasite or virus in culture; conditions: Fusobacterium varium, ATCC8501; Medium B; read-out: MIC
Text: as §1

[21] = tested on: Treponema hyodysenteriae DJ 70 P-3; assay: microbe, parasite or virus in culture; conditions: Brachyspira hyodysenteriae, DJ70P3; Medium F; read-out: MIC
Text: as §1

[22] = tested on: Penicillium herquei KE 227 (IFO 4647); assay: microbe, parasite or virus in culture; conditions: Penicillium herquei, IFO4647; Medium E; read-out: MIC
Text: as §1

[23] = tested on: Proteus vulgaris KB 127 (IFO 3167); assay: microbe, parasite or virus in culture; conditions: Proteus vulgaris, IFO3167; Medium A; read-out: MIC
Text: as §1

[24] = tested on: Klebsiella pneumoniae KB 214 (IFO 10031); assay: microbe, parasite or virus in culture; conditions: Klebsiella pneumoniae, IFO10031; Medium A; read-out: MIC
Text: as §1

[25] = tested on: S. cerevisiae KF 237 (ATCC 9763); assay: microbe, parasite or virus in culture; conditions: Saccharomyces cerevisiae, ATCC9763; Medium E; read-out: MIC
Text: as §1

[26] = tested on: Haemophilus pleuropneumoniae KB 282; assay: microbe, parasite or virus in culture; conditions: Actinobacillus pleuropneumoniae, KB282; Medium C; read-out: MIC
Text: as §1

[27] = tested on: Escherichia coli KB 213 (NIHJ); assay: microbe, parasite or virus in culture; conditions: Escherichia coli; Medium A; read-out: MIC
Text: as §1

[28] = tested on: E. coli KB 176 (NIHJ JC-2); assay: microbe, parasite or virus in culture; conditions: Escherichia coli, NIHJJC2; Medium A; read-out: MIC
Text: as §1

[29] = tested on: Treponema hyodysenteriae DJ70 P-3; conditions: for Lesion: mice with lesion/mice; for Curative ratios: Table 2
Method: Groups of seven-week old mice (CF-1) are orally infected with Treponema hyodensenteriae DJ 70 P-3 as the test pathogen, each group consisting of five mice. The mice are fasted beginning one day before the bacterial infection, and hygromycin A is administered to them in drinking water at the dosages of 60, 30, 15, 7.5, 3.7, 1.8 and 0.9 µg/ml. The bacterial infection is effected on the first and second days after fasting. The drug is administered through drinking water for six consecutive days after the first bacterial infection. On the sixth day of the administration the test animals are necropsied, and presence of Treponema hyodysenteriae in the contents of their digestive organs are determined by three days' cultivation in blood agar. As the positive control, Lincomycin (60-3.7 pg/ml) Dynamutilin, lankacidin C and olaquindox (60-7.5 µg/ml, respectively) are administered through drinking water at the concentrations indicated. As the negative control, untreated group allowed to freely drink water.

[30] = Dosage 3.7 μg/mℓ in drinking water
[31] = Dosage 7.5 μg/mℓ in drinking water
[32] = Dosage 15 μg/mℓ in drinking water
[33] = Dosage 30 μg/mℓ in drinking water
[34] = Dosage 60 μg/mℓ in drinking water

With `CCC[C@@H]1C[C@@H](C(=O)N[C@@H]([C@H]2O[C@H](SC)[C@H](O)[C@@H](O)[C@H]2O)[C@@H](C)O)N(C)C1` [Lincomycin] the MIC (Aspergillus niger KF-105) was greater than 100 µg/mL, the MIC (Saccharomyces sake KF 26) was greater than 100 µg/mL and the MIC [1] was greater than 100 µg/mL. The MIC [2] was 1.56 µg/mL (≈ 3.84 µM), the MIC [3] was 1.56 µg/mL (≈ 3.84 µM) and the MIC [4] was greater than 100 µg/mL. It also gave an MIC [5] greater than 100 µg/mL, an MIC [6] of 50 µg/mL (≈ 123 µM) and an MIC [7] of 3.12 µg/mL (≈ 7.67 µM). The MIC (M. pneumoniae KB-173) was 25 µg/mL (≈ 61.5 µM), the MIC [8] was greater than 100 µg/mL and the MIC (Candida albicans KF-1) was greater than 100 µg/mL. The MIC [9] was greater than 100 µg/mL, the MIC [10] was 0.4 µg/mL (≈ 0.984 µM) and the MIC [11] was 12.5 µg/mL (≈ 30.7 µM). The MIC [12] was 6.25 µg/mL (≈ 15.4 µM), the MIC [13] was 12.5 µg/mL (≈ 30.7 µM) and the MIC (S. aureus KB 283 (MRSA)) was 6.25 µg/mL (≈ 15.4 µM). For the same compound, the MIC [14] was 25 µg/mL (≈ 61.5 µM), the MIC [15] was greater than 100 µg/mL and the MIC [16] was 12.5 µg/mL (≈ 30.7 µM). The MIC [17] was greater than 50 µg/mL, the MIC [18] was 3.12 µg/mL (≈ 7.67 µM) and the MIC (S. aureus KB 285 (MRSA)) was 12.5 µg/mL (≈ 30.7 µM). It also gave an MIC [19] of 12.5 µg/mL (≈ 30.7 µM), an MIC [20] of 12.5 µg/mL (≈ 30.7 µM) and an MIC [21] of 0.2 µg/mL (≈ 0.492 µM). For the same compound, the MIC [22] was greater than 100 µg/mL, the MIC [23] was greater than 100 µg/mL and the MIC [24] was greater than 100 µg/mL. The MIC [25] was greater than 100 µg/mL, the MIC [26] was 50 µg/mL (≈ 123 µM) and the MIC [27] was greater than 100 µg/mL. The MIC [28] was greater than 100 µg/mL, the “Noninfective (%)” value [29, 30] was 0% and the “Presence of T. hyo. 1st day” value [29, 30] was 3/5. The “Presence of T. hyo. 3rd day” value [29, 30] was 5/5, the Lesion [29, 30] was 1/5 and the “Noninfective (%)” value [29, 31] was 20%. For the same compound, the “Presence of T. hyo. 1st day” value [29, 31] was 0/5, the “Presence of T. hyo. 3rd day” value [29, 31] was 4/5 and the Lesion [29, 31] was 0/5. For the same compound, the “Noninfective (%)” value [29, 32] was 60%, the “Presence of T. hyo. 1st day” value [29, 32] was 0/5 and the “Presence of T. hyo. 3rd day” value [29, 32] was 2/5. The Lesion [29, 32] was 0/5, the “Noninfective (%)” value [29, 33] was 100% and the “Presence of T. hyo. 1st day” value [29, 33] was 0/5. The “Presence of T. hyo. 3rd day” value [29, 33] was 0/5, the Lesion [29, 33] was 0/5 and the “Noninfective (%)” value [29, 34] was 100%. For the same compound, the “Presence of T. hyo. 1st day” value [29, 34] was 0/3, the “Presence of T. hyo. 3rd day” value [29, 34] was 0/3 and the Lesion [29, 34] was 0/3. For the same compound, the ED50 ([29]; Table 1, CF-1 mice, administration through drinking water) was 13 µg/mL (≈ 32 µM), the Curative ratios ([29]; Dosage 3.7 μg/mℓ) was 0% and the Curative ratios ([29]; Dosage 7.5 μg/mℓ) was 20%. For the same compound, the Curative ratios ([29]; Dosage 15 μg/mℓ) was 60%, the Curative ratios ([29]; Dosage 30 μg/mℓ) was 100% and the Curative ratios ([29]; Dosage 60 μg/mℓ) was 100%. For the same compound, the “Fifty-percent effective dosages (ED50)” value ([29]; list after b26, CF-1 mice, administration through drinking water) was 13 µg/mL.

Values after ≈ are worked out from the molar mass of the structure shown. Where two headings read alike, the source gives them in different places.
